Positions count from the first letter of the chain named. These are yes or no findings as the source states them, for the method shown. Binding seen in cells or lysates may run through a third protein. Some results given as binding are weak or reduced against the parent protein; the word gives no strength. Tags and fused reporters may be left off the sequences shown.
Tests used:
Test in all cases: pull-down; 1.5 nmol GST-LASP1 phospho-mutants on glutathione-agarose beads with 1 mg of Bone-Un LASP1 knockout total lysate (Co-IP buffer), 2 h at 4 °C; Western blot for Ago2; only the target purified
GST-LASP1 Y171F (human) = target: T1, GST-LASP1 Y171F (human) (UniProt Q14847)
T1 sequence: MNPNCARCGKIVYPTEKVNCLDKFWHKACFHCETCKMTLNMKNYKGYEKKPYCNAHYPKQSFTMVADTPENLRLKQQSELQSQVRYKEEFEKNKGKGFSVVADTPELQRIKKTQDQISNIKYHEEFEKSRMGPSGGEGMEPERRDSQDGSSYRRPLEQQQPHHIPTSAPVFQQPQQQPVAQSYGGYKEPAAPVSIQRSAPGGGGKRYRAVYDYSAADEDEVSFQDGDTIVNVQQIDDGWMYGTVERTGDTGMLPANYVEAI

The chains behind the UniProt entries cited, without tags or fusion partners.
UniProt Q9UKV8: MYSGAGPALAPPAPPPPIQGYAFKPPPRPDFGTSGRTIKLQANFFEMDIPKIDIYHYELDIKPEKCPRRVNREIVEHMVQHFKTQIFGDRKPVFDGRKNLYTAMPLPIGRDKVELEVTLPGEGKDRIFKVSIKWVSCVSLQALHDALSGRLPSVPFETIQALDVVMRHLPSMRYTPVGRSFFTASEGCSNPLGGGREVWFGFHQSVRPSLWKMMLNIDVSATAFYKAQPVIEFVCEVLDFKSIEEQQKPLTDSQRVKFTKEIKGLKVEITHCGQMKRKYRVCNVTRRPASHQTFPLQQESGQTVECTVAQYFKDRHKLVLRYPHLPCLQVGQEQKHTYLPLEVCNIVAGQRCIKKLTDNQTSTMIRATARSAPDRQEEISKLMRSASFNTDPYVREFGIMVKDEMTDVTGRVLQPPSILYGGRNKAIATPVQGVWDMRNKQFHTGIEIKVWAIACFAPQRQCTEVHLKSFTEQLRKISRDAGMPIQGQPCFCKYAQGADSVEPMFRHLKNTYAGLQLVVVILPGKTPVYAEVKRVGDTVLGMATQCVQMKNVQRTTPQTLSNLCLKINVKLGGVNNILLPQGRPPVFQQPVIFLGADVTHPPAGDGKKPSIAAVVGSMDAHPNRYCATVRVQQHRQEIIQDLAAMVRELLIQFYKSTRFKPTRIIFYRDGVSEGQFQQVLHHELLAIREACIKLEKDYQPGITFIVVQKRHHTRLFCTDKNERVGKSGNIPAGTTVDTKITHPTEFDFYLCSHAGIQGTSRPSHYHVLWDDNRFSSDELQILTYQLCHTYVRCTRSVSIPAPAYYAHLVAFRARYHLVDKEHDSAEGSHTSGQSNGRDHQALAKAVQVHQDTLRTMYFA

GST-LASP1 S146A (human) = target: T2, GST-LASP1 S146A (human) (UniProt Q14847)
T2 sequence: T1 sequence with S146A, F171Y

[1] = target: T3, GST-LASP1 S146A/Y171F (human) (UniProt Q14847)
T3 sequence: T1 sequence with S146A

GST-LASP1 Y171D (human) = target: T4, GST-LASP1 Y171D (human) (UniProt Q14847)
T4 sequence: T1 sequence with F171D

GST-LASP1 S146D (human) = target: T5, GST-LASP1 S146D (human) (UniProt Q14847)
T5 sequence: T1 sequence with S146D, F171Y

[2] = target: T6, GST-LASP1 S146A/Y171D (human) (UniProt Q14847)
T6 sequence: T1 sequence with S146A, F171D

Measured: binding

argonaute 2 (Ago2), endogenous (from UniProt Q9UKV8 1-859)
binds: all assays above

— PMC7564666
